From PubChem BioAssay AID1346428 (National Center for Advancing Translational Sciences (NCATS), 2018)
Several values for one entry are separate records, joined by “and”; a condition that tells them apart may be missing. Equal entries are not always repeated. Out of some 48,000 compounds screened, about 1,200 (2.5%) were called active. Not shown: some 2% with an inconclusive outcome.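 The calls were made as follows: active = activation of at least 60% and not above a set upper limit (about 1 call in 100 departs from these limits); inconclusive = activation of 40% to 60%, or above that upper limit; inactive = activation under 40%.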 This is one part of the list.

These molecules were tested against Probable G-protein coupled receptor 32 (Homo sapiens) (UniProt O75388) (assay: qHTS for Agonists of Human Resolvin D1 Receptor DRV1). Conditions: CHO-K1 GPR32 beta-arrestin PathHunter luminescence, 90 min; at 76.9 µM; active compounds read high; zero percent set by DMSO-only wells.
UniProt O75388, sequence (O75388 whole entry, looked up): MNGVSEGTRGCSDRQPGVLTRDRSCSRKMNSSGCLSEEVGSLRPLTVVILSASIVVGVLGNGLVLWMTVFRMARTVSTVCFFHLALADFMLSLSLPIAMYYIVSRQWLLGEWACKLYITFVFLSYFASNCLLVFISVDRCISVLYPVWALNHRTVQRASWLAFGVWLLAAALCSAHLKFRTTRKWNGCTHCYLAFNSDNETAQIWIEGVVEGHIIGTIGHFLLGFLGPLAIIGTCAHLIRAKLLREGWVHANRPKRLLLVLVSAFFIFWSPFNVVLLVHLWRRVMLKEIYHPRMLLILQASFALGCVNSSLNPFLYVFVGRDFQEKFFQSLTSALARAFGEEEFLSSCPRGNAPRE
Summary of the method: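 Using DMSO wells as EC0, agonist-induced signal was taken as chemiluminescence from beta-Gal reconstituted upon beta-arrestin recruitment to GPR32 in CHO-K1 cells after 90 min compound treatment.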
Also: 0% is about no effect.

Structure (SMILES) | activation
Cc1ccn2c(Nc3ccccc3C)c(-c3ccc(N4CCOCC4)cc3)nc2c1 | inactive: -18.7%
O=C(COc1ccc(Cl)cc1)NCC(c1ccco1)S(=O)(=O)c1ccccc1 (configuration not stated) | inactive: -5.65%
COc1ccccc1NC(=O)c1sc2nc3c(c(C(F)(F)F)c2c1N)CN(C(C)=O)CC3 | inactive: 7.58%
Cc1ccccc1CCNC(=O)c1ccc(NC(=O)N2CC(C)Sc3ccccc32)cc1 (configuration not stated) | inactive: -18.3%
Cc1nn(-c2ccc(N3CCOCC3)nn2)c(C)c1CCC(=O)NCc1ccccc1 | inactive: 1.5%
Cc1cc(C)c(NC(=O)CSc2n[nH]c(-c3ccccc3Cl)n2)c(C)c1 | inactive: -0.867%
Cc1ccccc1-c1nnc(SCC(=O)N(C)c2ccccc2)o1 | inactive: -6.05%
COc1cc(C(=O)N2CCNC(=O)C2CC(=O)Nc2ccc(C)c(C)c2)cc(OC)c1OC (configuration not stated) | inactive: -31%
CCCCNc1nc2c(-c3cccc(C)c3)nnn2c2ccccc12 | inactive: -4.11%
Cc1ccc(/C=C/c2onc(C)c2S(=O)(=O)N2CCC(C(=O)Nc3ccc(OC(F)(F)F)cc3)CC2)cc1 | inactive: -9.36%
Cc1cccc(OCC(=O)Nc2cccc(C(=O)OCc3cc(=O)n4nc(C(C)C)sc4n3)c2)c1 | inactive: -12.4%
Cc1ccc(S(=O)(=O)Nc2cc3c(C(=O)OCc4ccccc4)c(C)oc3c3ccccc23)c(C)c1 | inactive: 9.2%
COC(=O)c1ccc(NC(=O)Cn2ccn3nc(-c4ccc(OC)cc4)cc3c2=O)cc1 | inactive: -3.04%
Cc1ccc(CNC(=O)CCc2c(C)nc3c(-c4ccc(F)cc4)c(C)nn3c2C)cc1 | inactive: -2.13%
CCCN(CCC)C(=O)Cn1c(=O)n(CCCCCC(=O)Nc2ccccc2)c(=O)c2sccc21 | inactive: -24.9%
COc1ccc2c(c1)c1c(c(=O)n(-c3ccccc3C)c(=O)n1CC(N)=O)n2C | inactive: -7.91%
CCc1sc(Nc2cccc(Cl)c2)nc1-c1cc2cccc(OC)c2oc1=O | inactive: -27.9%
Cc1nn2c3c(cnc2c1-c1ccc(Cl)cc1)C(=O)CC(c1ccc(C(C)C)cc1)C3 (configuration not stated) | inactive: 13.3%
COc1ccc(NC(=O)CN2C(=O)C(C)(C)c3cc(S(=O)(=O)N4CCCCC4)ccc32)cc1Cl | inactive: 18.5%
Cc1c(C(=O)OCc2ccccc2)[nH]c2c1C(=O)CC(c1ccc(N(C)C)cc1)C2 (configuration not stated) | inactive: -0.0625%
Cc1ccc(S(=O)(=O)C(CNC(=O)COc2ccccc2)c2cccs2)cc1 (configuration not stated) | inactive: 31.1%
O=c1oc2cc(O)ccc2cc1-c1nc(-c2ccc(Cl)c(Cl)c2)cs1 | inactive: 22.3%
COc1cccc(-n2c(SCC(=O)c3ccccc3)nc3c([nH]c4ccccc43)c2=O)c1 | inactive: -18.3%
COC(=O)C1=C(C)NC(=O)NC1c1cn(-c2ccccc2)nc1-c1ccc(OC)c(Br)c1 (configuration not stated) | inactive: 17.8%
Cc1cccc(C)c1Nc1c(-c2ccc(N3CCOCC3)cc2)nc2ncccn12 | inactive: -10.2%
COc1ccc(N2CCN(C(=O)CN3CCSc4ccccc43)CC2)cc1 | inactive: -3.11%

Structure (SMILES) | activation
CCn1c(=O)cc(OCC(=O)N2CCN(c3ccc(C(C)=O)cc3)CC2)c2ccccc21 | inactive: 13.8%
CN(C(=O)c1c[nH]c2ccc(S(=O)(=O)Nc3cccc(C(F)(F)F)c3)cc2c1=O)C1CCCCC1 | inactive: -13.2%
CC(=O)Nc1ccc(NC(=O)CN2C(=O)CC(c3ccco3)Sc3ccccc32)cc1 (configuration not stated) | inactive: -17.2%
Cc1ccc(-c2cc(C(F)(F)F)n3nc(-c4cccc(Br)c4)cc3n2)cc1 | inactive: 8.72%
CNC(=O)c1c(NC(=O)c2cc(=O)c3cc(C)c(C)cc3o2)sc2c1CCCC2 | inactive: -0.446%
COc1ccccc1CNC(=O)Cn1c(-c2ccc(F)cc2)cc(C(C)=O)c1C | inactive: -13.9%
Cc1ccc(CSCCC(=O)N2CCN(c3ccc(F)cc3)CC2)cc1 | inactive: -22.1%
O=C(Cn1nc(Cc2ccncc2)c2ccccc2c1=O)Nc1cccc(C(F)(F)F)c1 | inactive: -19%
COc1ccc(Cl)cc1NC(=O)Nc1c[nH]c(=O)[nH]c1=O | inactive: 25.8%
Cc1c(Cl)cccc1N1CCn2c1nc1c2c(=O)n(CC(=O)O)c(=O)n1C | inactive: -2.44%
COc1ccccc1NC(=O)c1nn(C)c2c1CS(=O)(=O)c1ccccc1-2 | inactive: -8.62%
CN(C)S(=O)(=O)c1ccc(C(=O)NCCSc2c(-c3ccc(Br)cc3)[nH]c3ccccc23)cc1 | inactive: -19.9%
CCCCNC(=O)CC1Nc2cc(C)c(C)cc2NC1=O (configuration not stated) | inactive: -9.17%
Cc1ccc(NC(=O)C2CCCN(c3ncnc4onc(C)c34)C2)c(Cl)c1 (configuration not stated) | inactive: 24%
O=C(CCSCc1ccc(Cl)cc1)NCCc1ccccc1 | inactive: -26%
O=C(NCCc1ccc(Cl)cc1)c1nnc(Cc2ccc(F)cc2)o1 | inactive: 25.1%
O=C(O)C1CCCN(CCC=C(c2ccccc2)c2ccccc2)C1 (configuration not stated) | inactive: -6.71%
CCCCc1ccc(Nc2cc(C)nc(-n3nc(C)cc3C)n2)cc1 | inactive: -18.6%
O=C(Nc1ccc(-c2nc3ccccc3o2)c(O)c1)c1cc(Cl)ccc1Cl | inactive: -1.51%
COc1cc(OC)cc(C(=O)Nc2ccc3nc4c(c(Nc5ccc(OC)c(OC)c5)c3c2)CCCC4)c1 | active: 85.5%
CCN(C(=O)CCS(=O)(=O)c1ccc2c(c1)CCN2C(C)=O)c1cccc(C(F)(F)F)c1 | inactive: -2.67%
O=C(NCC(c1cccnc1)N1CCc2ccccc2C1)C(=O)Nc1ccccc1F (configuration not stated) | inactive: -17.4%
CC1Cc2cc(S(=O)(=O)CCC(=O)Nc3ccc(F)cc3)ccc2N1C(=O)C1CC1 (configuration not stated) | inactive: 1.41%
CSc1ccc(CNC(=O)Cn2c(-c3cccs3)cc3cc(F)ccc32)cc1 | inactive: -19.4%
O=C(/C=C\c1ccc2c(c1)OCO2)NC1CC(=O)N(c2ccccc2)C1 (configuration not stated) | inactive: 10.2%
CC(=O)O[C@]1(C(C)=O)CC[C@H]2[C@@H]3C=C(Cl)C4=CC(=O)[C@@H]5C[C@@H]5[C@]4(C)[C@H]3CC[C@@]21C | inactive: 15.1% and inactive: -14.6%
